Some of the results follow. Repeats are few or missing, and single values can be far off.
Columns and labels:
Experiment in all cases: cell count relative to DMSO control; melanoma cells; higher = more viable cells
Details in all cases: library dose: standard library concentration; 72 h
G361 = tested on: G361
IPC-298 = tested on: IPC-298
IST-MEL1 = tested on: IST-MEL1
LB2518-MEL = tested on: LB2518-MEL
LOXIMVI = tested on: LOXIMVI
MEL-HO = tested on: MEL-HO
MZ2-MEL = tested on: MZ2-MEL
MeWo = tested on: MeWo
RPMI7951 = tested on: RPMI7951
RVH-421 = tested on: RVH-421
SkMel28 = tested on: SkMel28
SkMel2 = tested on: SkMel2
SkMel30 = tested on: SkMel30
SkMel5 = tested on: SkMel5
UACC257 = tested on: UACC257
UACC62 = tested on: UACC62
WM115 = tested on: WM115
WM1716 = tested on: WM1716
WM3526 = tested on: WM3526
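Also: cells treated in 1,536-well plates, then fixed and DAPI-stained, with nuclei counted from automated high-throughput microscope images.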

O=C(Nc1cc(C(F)(F)F)cc(C(F)(F)F)c1)c1cc(Cl)ccc1O + c1cc(-c2cnn3cc(-c4ccc(OCCN5CCCCC5)cc4)cnc23)ccn1 [Dorsomorphin] (first compound 0.08 µM, partner dose 2 µM)
cell count (G361): 65.8%
cell count (IPC-298): 100%
cell count (IST-MEL1): 94.5%
cell count (LB2518-MEL): 94.1%
cell count (LOXIMVI): 123%
cell count (MEL-HO): 84%
cell count (MZ2-MEL): 75.7%
cell count (MeWo): 80.9%
cell count (RPMI7951): 74.6%
cell count (RVH-421): 118%
cell count (SkMel28): 91%
cell count (SkMel2): 95.4%
cell count (SkMel30): 117%
cell count (SkMel5): 76.2%
cell count (UACC257): 69.1%
cell count (UACC62): 78.5%
cell count (WM115): 93.7%
cell count (WM1716): 102%
cell count (WM3526): 91%

O=C(O)c1ccc2c(c1)nc(Nc1cccc(Cl)c1)c1ccncc12 + CC(C)CCN1c2nc(Nc3cc(F)c(O)c(F)c3)ncc2N(C)C(=O)C1C [BID1870] (first compound 2 µM, partner dose 1 µM)
cell count (G361): 46.9%
cell count (IPC-298): 46.4%
cell count (IST-MEL1): 60.2%
cell count (LB2518-MEL): 90.4%
cell count (LOXIMVI): 53.1%
cell count (MEL-HO): 39.8%
cell count (MZ2-MEL): 58.4%
cell count (MeWo): 54.9%
cell count (RPMI7951): 42.6%
cell count (RVH-421): 67.6%
cell count (SkMel28): 47.4%
cell count (SkMel2): 61.5%
cell count (SkMel30): 57.5%
cell count (SkMel5): 54%
cell count (UACC257): 58.4%
cell count (UACC62): 41.2%
cell count (WM115): 68.6%
cell count (WM1716): 54.2%
cell count (WM3526): 59.6%

O=C(O)[C@@H]1[O][Sb](=[O])([O][Sb]2(=[O])[O][C@H]([C@H](O)CO)[C@H](O)[C@H](C(=O)O)[O]2)[O][C@H]([C@H](O)CO)[C@@H]1O (stereo partly specified) [stibogluconate] + COC(=O)c1sccc1S(=O)(=O)Nc1ccc(Nc2ccccc2)cc1OC [GSK0660] (first compound 10 µM, partner dose 5 µM)
cell count (G361): 88.8%
cell count (IPC-298): 93.8%
cell count (IST-MEL1): 100%
cell count (LB2518-MEL): 108%
cell count (LOXIMVI): 146%
cell count (MEL-HO): 90.8%
cell count (MZ2-MEL): 76.7%
cell count (MeWo): 102%
cell count (RPMI7951): 111%
cell count (RVH-421): 115%
cell count (SkMel28): 78.2%
cell count (SkMel2): 97.3%
cell count (SkMel30): 98.5%
cell count (SkMel5): 89.8%
cell count (UACC257): 96.5%
cell count (UACC62): 105%
cell count (WM115): 119%
cell count (WM1716): 105%
cell count (WM3526): 97.2%

O=C(O)[C@@H]1[O][Sb](=[O])([O][Sb]2(=[O])[O][C@H]([C@H](O)CO)[C@H](O)[C@H](C(=O)O)[O]2)[O][C@H]([C@H](O)CO)[C@@H]1O (stereo partly specified) [stibogluconate] + COc1ccc(COc2ccc(Cc3cnc(N)nc3N)cc2OC)cc1 [GW2580] (first compound 10 µM, partner dose 5 µM)
cell count (G361): 74.3%
cell count (IPC-298): 92.3%
cell count (IST-MEL1): 85.6%
cell count (LB2518-MEL): 87.2%
cell count (LOXIMVI): 97.2%
cell count (MEL-HO): 88.3%
cell count (MZ2-MEL): 94.2%
cell count (MeWo): 92.1%
cell count (RPMI7951): 81.2%
cell count (RVH-421): 108%
cell count (SkMel28): 75.3%
cell count (SkMel2): 81.6%
cell count (SkMel30): 125%
cell count (SkMel5): 73.6%
cell count (UACC257): 73.3%
cell count (UACC62): 100%
cell count (WM115): 85.5%
cell count (WM1716): 72.7%
cell count (WM3526): 79.7%
